Further values from the same series stand in other lists.
Tests used:
Rat [1] = experiment: concentration in brain after dosing; details: 20 min; dosed: 2-Methyltetrahydrofuran; 30 mg/kg; oral; Female; F344
Rat [2] = experiment: concentration in plasma after dosing; details: 2 min; dosed: 2-Methyltetrahydrofuran; 10 mg/kg; iv; Female; F344
Rat [3] = experiment: concentration in brain after dosing; details: 0.5 h; dosed: 2-Methyltetrahydrofuran; 10 mg/kg; iv; Female; F344
Rat [4] = experiment: concentration in brain after dosing; details: 4 min; dosed: 2-Methyltetrahydrofuran; 30 mg/kg; oral; Female; F344
Rat [5] = experiment: concentration in brain after dosing; details: 10 min; dosed: 2-Methyltetrahydrofuran; 30 mg/kg; oral; Male; F344
Rat [6] = experiment: concentration in plasma after dosing; details: 1.5 h; dosed: 2-Methyltetrahydrofuran; 10 mg/kg; iv; Female; F344
Rat [7] = experiment: concentration in plasma after dosing; details: 10 min; dosed: 2-Methyltetrahydrofuran; 100 mg/kg; oral; Male; Harlan Sprague Dawley
Rat [8] = experiment: concentration in plasma after dosing; details: 20 min; dosed: 2-Methyltetrahydrofuran; 30 mg/kg; oral; Female; F344
Rat [9] = experiment: concentration in brain after dosing; details: 1.5 h; dosed: 2-Methyltetrahydrofuran; 10 mg/kg; iv; Female; F344
Rat [10] = experiment: concentration in brain after dosing; details: 0.75 h; dosed: 2-Methyltetrahydrofuran; 10 mg/kg; oral; Male; F344
Rat [11] = experiment: concentration in brain after dosing; details: 1 h; dosed: 2-Methyltetrahydrofuran; 10 mg/kg; iv; Female; F344
Rat [12] = experiment: concentration in plasma after dosing; details: 0.75 h; dosed: 2-Methyltetrahydrofuran; 10 mg/kg; oral; Male; F344
Rat [13] = experiment: concentration in plasma after dosing; details: 5 min; dosed: 2-Methyltetrahydrofuran; 10 mg/kg; iv; Male; F344
Rat [14] = experiment: concentration in plasma after dosing; details: 1.5 h; dosed: 2-Methyltetrahydrofuran; 400 mg/kg; oral; Female; Harlan Sprague Dawley
Rat [15] = experiment: concentration in plasma after dosing; details: 10 min; dosed: Bromochloroacetic acid; 10 mg/kg; iv; Male; F344
Rat [16] = experiment: concentration in plasma after dosing; details: dosed: Bromochloroacetic acid, 100 mg/kg, oral, Male, F344
Rat [17] = experiment: concentration in plasma after dosing; details: dosed: Bromochloroacetic acid, 100 mg/kg, oral, Female, F344
Rat [18] = experiment: concentration in plasma after dosing; details: dosed: Fluorotelomer alcohol 8+2, 40 mg/kg, oral, Female, Harlan Sprague Dawley
Rat [19] = experiment: concentration in plasma after dosing; details: dosed: Fluorotelomer alcohol 8+2, 48 mg/kg, oral, Male, Harlan Sprague Dawley
Rat [20] = experiment: concentration in plasma after dosing; details: 3 h; dosed: Fluorotelomer alcohol 8+2; 80 mg/kg; oral; Female; Harlan Sprague Dawley
Rat [21] = experiment: concentration in plasma after dosing; details: dosed: Fluorotelomer alcohol 8+2, 80 mg/kg, oral, Female, Harlan Sprague Dawley
Rat [22] = experiment: concentration in plasma after dosing; details: dosed: Formamide, 36 mg/kg, oral, Female, Harlan Sprague Dawley
Rat [23] = experiment: concentration in plasma after dosing; details: dosed: Formamide, 30 mg/kg, iv, Female, F344
Rat [24] = experiment: concentration in plasma after dosing; details: dosed: Formamide, 600 mg/kg, oral, Male, Harlan Sprague Dawley
Rat [25] = experiment: concentration in plasma after dosing; details: dosed: Formamide, 300 mg/kg, oral, Female, Harlan Sprague Dawley
Rat [26] = experiment: concentration in plasma after dosing; details: dosed: Formamide, 300 mg/kg, oral, Female, Harlan Sprague Dawley; remark: listed apart in the source
Rat [27] = experiment: concentration in plasma after dosing; details: dosed: Formamide, 600 mg/kg, oral, Female, Harlan Sprague Dawley
Rat [28] = experiment: concentration in plasma after dosing; details: dosed: Formamide, 600 mg/kg, oral, Male, Harlan Sprague Dawley; remark: listed apart in the source
Rat [29] = experiment: concentration in plasma after dosing; details: dosed: Formamide, 90 mg/kg, iv, Male, Harlan Sprague Dawley
Rat [30] = experiment: concentration in plasma after dosing; details: 2 h; dosed: Pyridine; 200 mg/kg; oral; Female; F344
Rat [31] = experiment: concentration in plasma after dosing; details: 20 min; dosed: Pyridine; 200 mg/kg; oral; Female; F344
Rat [32] = experiment: concentration in plasma after dosing; details: 2 h; dosed: Pyridine; 10 mg/kg; oral; Male; Harlan Sprague Dawley
Rat [33] = experiment: concentration in plasma after dosing; details: 2 h; dosed: Pyridine; 50 mg/kg; oral; Male; Harlan Sprague Dawley
Rat [34] = experiment: concentration in plasma after dosing; details: 1 h; dosed: Pyridine; 5 mg/kg; iv; Male; F344
Rat [35] = experiment: concentration in plasma after dosing; details: 10 min; dosed: Pyridine; 200 mg/kg; oral; Female; F344
Rat [36] = experiment: concentration in plasma after dosing; details: dosed: Pyridine, 100 mg/kg, oral, Male, F344
Rat [37] = experiment: concentration in plasma after dosing; details: dosed: Pyridine, 5 mg/kg, oral, Female, F344
Rat [38] = experiment: concentration in plasma after dosing; details: 5 min; dosed: Pyridine; 10 mg/kg; iv; Male; Harlan Sprague Dawley

CC1CCCO1 (stereo not drawn) [2-Methyltetrahydrofuran]
Details	concentration in brain [µg/g]	concentration in plasma [ng/mL]
Rat [1]	6.97	–
Rat [2]	–	19000
Rat [3]	2.7	–
Rat [4]	5.42	–
Rat [5]	9.4	–
Rat [6]	–	423
Rat [7]	–	59100
Rat [8]	–	20100
Rat [9]	0.26	–
Rat [10]	1.41	–
Rat [11]	0.675	–
Rat [12]	–	2160
Rat [13]	–	14400
Rat [14]	–	157000

O=C(O)C(Cl)Br (stereo not drawn) [Bromochloroacetic acid]
Details	concentration in plasma [ng/mL]
Rat [15]	5440

concentration in plasma [ng/mL]
Details	3 h	4.5 h	5 min	10 min
Rat [16]	–	2060	–	3930
Rat [17]	8610	–	7460	–

OCCC(F)(F)C(F)(F)C(F)(F)C(F)(F)C(F)(F)C(F)(F)C(F)(F)C(F)(F)F [Fluorotelomer alcohol 8+2]
concentration in plasma [ng/mL]
Details	0.25 h	0.5 h	9 h	24 h
Rat [18]	–	566	76.9	–
Rat [19]	–	527	72.4	–
Rat [21]	153	–	–	9.08

Details	concentration in plasma [ng/mL]
Rat [20]	878

NC=O [Formamide]
Details	concentration in plasma [ng/mL]
Rat [22], 2 h	42800
Rat [22], 5 min	9800
Rat [23], 8 h	25000
Rat [23], 12 h	17100
Rat [24], 10 min	400000
Rat [24], 20 h	457000
Rat [25], 2 h	232000
Rat [25], 5 min	56900
Rat [26], 0.5 h	175000
Rat [26], 48 h	28100
Rat [27], 1 h	654000
Rat [27], 72 h	28400
Rat [28], 2 h	746000
Rat [28], 5 min	192000
Rat [29], 5 min	140000
Rat [29], 36 h	11500

c1ccncc1 [Pyridine]
Details	concentration in plasma [ng/mL]
Rat [30]	56200
Rat [31]	102000
Rat [32]	1640
Rat [33]	29000
Rat [34]	3750
Rat [35]	90200
Rat [38]	7500

concentration in plasma [ng/mL]
Details	2 h	4 h	5 min	14 h
Rat [36]	–	60800	21200	–
Rat [37]	3200	–	–	159

From EPA's CvTdb concentration-time database
